Data published in publication PMC12136788.
The list shows a part of the results.

T1: UNK ZnF1-6 (called full-length) (human, UniProt Q9C0B0 30-357)
T1 sequence: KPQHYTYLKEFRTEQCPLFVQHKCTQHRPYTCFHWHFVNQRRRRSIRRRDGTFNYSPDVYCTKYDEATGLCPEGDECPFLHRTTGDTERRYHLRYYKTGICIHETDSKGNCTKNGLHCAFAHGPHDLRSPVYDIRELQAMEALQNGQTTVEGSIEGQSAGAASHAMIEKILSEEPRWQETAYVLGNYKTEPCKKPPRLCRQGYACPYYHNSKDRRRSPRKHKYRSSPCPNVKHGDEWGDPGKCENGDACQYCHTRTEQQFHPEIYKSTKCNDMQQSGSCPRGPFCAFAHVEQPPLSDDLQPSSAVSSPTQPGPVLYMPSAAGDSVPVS

B1: chr1:10178627:10178729:+|CDS|ENSG00000130939|unk|FALSE|unique (ssRNA)
RNA: GGGAGUUCUACAGUCCGACGAUCUAAGGAAUUGUUUGAAGAAGUUAUUUCAAAGAUGCGGAAGGCAGGGAUCAAAUCCACAAUAGCAAUAGAAAAAUUUAAGCUGCUCGCCGAGAAAGUGGAGGAGAUAGUGGCCAAGAACGCCAACAGAGGAUUGAGCAUCA
B2: chr3:52836218:52836623:-|three_prime_utr|ENSG00000213533|control|control|control (ssRNA)
RNA: GGGAGUUCUACAGUCCGACGAUCAGCAACUGCCCAGUGAAAAGCCAAACAUGCUCUUGCCAUGUCCAUCUCCACUUCUUCGCUAGUGAGAAUUAAAGCAAGUCCGUCUCUGAGGAGGACAUCGUGUUGGGGAGGUAGAGUAUACAACAGAGGAUUGAGCAUCA
B3: chr10:68442948:68443070:-|CDS|ENSG00000138346|unk|FALSE|unique (ssRNA)
RNA: GGGAGUUCUACAGUCCGACGAUCCCCAAUUGUGAUGCUGCCCAAAAUAGAAGAAGAAACCCAGCAUCUGAAGCAAACACACUUAGAAUAUUUCAGCCUUUGGUGUCUAAUGUUAACCCUGGAGUCACAAUCGAAGGAUAAUAACAACAGAGGAUUGAGCAUCA
B4: ENSG00000072803:stop:overlap|stop_codon|ENSG00000072803|stop_codon|NA|stop_codon (ssRNA)
RNA: GGGAGUUCUACAGUCCGACGAUCCUGGAUACAGUAAACGGAAAGAAUCUUGGAAGAUGCUUGACUGCUGUCUUUUCUCAGACUAGUCUGAAAGGGAAAACCCCCAUUCAUUCUGGAUUGGUGGAUCUGAAGUACAAAAUAUUUCAACAGAGGAUUGAGCAUCA
B5: chr1:45640296:45640398:-|CDS|ENSG00000159592|unk|total|mutant (ssRNA)
RNA: GGGAGUUCUACAGUCCGACGAUCCUCUCCACUCUUGUACUUCACAGAAAACCCGCCCCGUGCCAAGCAACCCUCCAAGAUGCCCGUUAUCAAAAAAGUUUCCAAAGAGGAUCCUGCUGCUGCCUUCUCUGCUGCAUUCACCUCCAACAGAGGAUUGAGCAUCA
B6: chr20:1570784:1571137:-|CDS|ENSG00000101307|control|control|control (ssRNA)
RNA: GGGAGUUCUACAGUCCGACGAUCACAGCUGACCUGGUUGGAGAAUGGAAAUGUGUCCCGGACAGAAACAGCUUCGACCCUCAUAGAGAACAAGGAUGGCACCUACAACUGGAUGAGCUGGCUCCUGGUGAACACCUGUGCCCACAACAGAGGAUUGAGCAUCA
B7: chr20:3649766:3649867:+|3pUTR|ENSG00000088812|unk|total|mutant (ssRNA)
RNA: GGGAGUUCUACAGUCCGACGAUCAAGUUCAAAGACUAACCUGCCGCAAUCAGACUUUCCAAAAGGGGGUUCUCCAUUUUUUGCCGUUUUGUCUAAAUUUUUAAUGACCAUUUCCUGGAAUCAGUUUAUUAUACUGAAAACUGGCAACAGAGGAUUGAGCAUCA
B8: chr3:97755980:97756081:+|3pUTR|ENSG00000080224|unk|total|mutant (ssRNA)
RNA: GGGAGUUCUACAGUCCGACGAUCUAAUUAAAAAUCUCUUUCCUACCUUCCGUAAUUUGCCGGAUGAACUGUAUGCAUUCCGACCGAAAUUGCUUUUGUUAAAUUUACAUUUAAACACAUCUUCAUUCACUCCGAGAAGCCAUACAACAGAGGAUUGAGCAUCA
B9: chr1:6522505:6522606:-|3pUTR|ENSG00000162408|msi1|FALSE|unique (ssRNA)
RNA: GGGAGUUCUACAGUCCGACGAUCCUGGGAUUACAGGCGUGAGCCACUGCGCCUGGCCUGAAGCUAUUCUUUACAAAAGCUCUUAGUUUUUGUUUGUUUGUUUGUUUUUUUCUUUUGCGACGGACUCUCUGUCGCCAAGGCUGGCAACAGAGGAUUGAGCAUCA
B10: chr3:122573770:122573871:+|3pUTR|ENSG00000163840|msi1|FALSE|unique (ssRNA)
RNA: GGGAGUUCUACAGUCCGACGAUCUAUUGGGUGCACUUGCCCUGCCACAGUAAUGCUAUAUAUUUCUGAGCAUUGUUUUUCUCUAGAUAAUUUUAUAUUUUUGAGUAUACCCCACUUCCAAGUGUUUUUUGUUUUGUUUUGCUUCAACAGAGGAUUGAGCAUCA
B11: chr20:64083387:64083705:-|CDS|ENSG00000171695|control|control|control (ssRNA)
RNA: GGGAGUUCUACAGUCCGACGAUCCUGAAGCCCGCGCGGAUCCCGGACCCCCUGGACCGCCAAGAGGUGCAGACAAGCCCCGGUAGGGGCGGGGAAAGGGGAGGGGCCCUGCCCGCCUCCGCACACGCCGGACCCCAGCCUCUCCAACAGAGGAUUGAGCAUCA
B12: ENSG00000130703:stop:overlap|stop_codon|ENSG00000130703|stop_codon|NA|stop_codon (ssRNA)
RNA: GGGAGUUCUACAGUCCGACGAUCCGUGUGGAUUAUUUGGAAAAGAACUUCACAAGGUGGAAGGACACAUUCAAGACAAAAAGUAGGUCCUUGCCAAGUGUUCAUGGGGCACCACUACAGCCUGUGUGUCCACGUUAGAAGGGCCAACAGAGGAUUGAGCAUCA
B13: chr2:112659350:112659462:+|CDS|ENSG00000144136|unk|total|mutant (ssRNA)
RNA: GGGAGUUCUACAGUCCGACGAUCCUUGCCAAGGUGGGAGAUUGCAUGGGAGACUCCGGUGACAAACCCUUAAGGCGCAAUAACCGCUAUACUUCCUAUACCAUGGCAAUAUGUGGCAUGCCUCUGGAUUCAUUCCGUGCCAAACAACAGAGGAUUGAGCAUCA
B14: chr2:74214837:74214938:+|3pUTR|ENSG00000065911|msi1_unk|FALSE|overlapping (ssRNA)
RNA: GGGAGUUCUACAGUCCGACGAUCCUGUCCUUUUGAGGCUUAGUCAGUUUAUUGGGAAAAUGUUUAGGAUUAUUCCUUGCUAUUAGUACUCAUUUUAUGUAUGUUACCCUUCAGUAAGUUCUCCCCAUUUUAGUUUUCUAGGACCAACAGAGGAUUGAGCAUCA

The binders below were run against T1, UNK ZnF1-6 (called full-length) (assay: nsRBNS (natural sequence RNA bind-n-seq); RBNS binding buffer (assumed for nsRBNS): 25 mM Tris pH 7.5, 150 mM KCl, 3 mM MgCl2, 0.01% Triton X-100, 500 ug/ml BSA, 20 U/ml SUPERase-In, 4 C; UNK is unkempt and MSI1 is Musashi-1; names of the RNAs are library labels; protein concentration not given here; high values mean tight binding).

How did the binding signal turn out when B1 was run?
The binding signal was 3.53 enrichment R.

B2 was tested. Which binding signal did it give?
The binding signal was 0.695 enrichment R.

For B3, which binding signal is on record?
Its binding signal is 2.63 enrichment R.

For B4, which binding signal is on record?
The binding signal was 1.04 enrichment R.

How did the binding signal turn out when B5 was run?
Its binding signal is 0.826 enrichment R.

Which binding signal does the source give for B6 here?
The binding signal was 0.718 enrichment R.

B7 was tested. Which binding signal did it give?
The binding signal was 0.554 enrichment R.

B8 was tested. Which binding signal did it give?
The binding signal was 0.569 enrichment R.

For B9, which binding signal is on record?
The binding signal was 0.662 enrichment R.

How did the binding signal turn out when B10 was run?
Its binding signal is 5.09 enrichment R.

Which binding signal does the source give for B11 here?
The binding signal was 1.98 enrichment R.

B12 was tested. Which binding signal did it give?
The binding signal was 0.872 enrichment R.

B13 was tested. Which binding signal did it give?
The binding signal was 0.509 enrichment R.

With B14 as the binder, how does the binding signal read?
Its binding signal is 12.4 enrichment R.
